From a compilation of properties of binary mixtures (doi:10.1016/j.jct.2020.106383)
The densities may have been worked out from excess volumes.

Assay: xn = mol fraction of the nth substance listed
Settings: 100 kPa

CCOC(C)=O + CCCC[n+]1ccn(C)c1.O=S(=O)([N-]S(=O)(=O)C(F)(F)F)C(F)(F)F
mass density (298.15 K, x2 = 0): 894.8 kg/m3
mass density (298.15 K, x2 = 0.2067): 1139.5 kg/m3
mass density (298.15 K, x2 = 0.3058): 1209.5 kg/m3
mass density (298.15 K, x2 = 0.4012): 1261.8 kg/m3
mass density (298.15 K, x2 = 0.6065): 1342.8 kg/m3
mass density (298.15 K, x2 = 0.7081): 1372.3 kg/m3
mass density (298.15 K, x2 = 0.7932): 1393.4 kg/m3
mass density (303.15 K, x2 = 0): 888.6 kg/m3
mass density (303.15 K, x2 = 0.1045): 1034.4 kg/m3
mass density (303.15 K, x2 = 0.2067): 1133.5 kg/m3
mass density (303.15 K, x2 = 0.3058): 1203.8 kg/m3
mass density (303.15 K, x2 = 0.4012): 1256.1 kg/m3
mass density (303.15 K, x2 = 0.5002): 1299.7 kg/m3
mass density (303.15 K, x2 = 0.6065): 1337.5 kg/m3
mass density (303.15 K, x2 = 0.7081): 1367.2 kg/m3
mass density (303.15 K, x2 = 0.9087): 1412.8 kg/m3
mass density (308.15 K, x2 = 0): 882.4 kg/m3
mass density (308.15 K, x2 = 0.1045): 1028.4 kg/m3
mass density (308.15 K, x2 = 0.2067): 1127.6 kg/m3
mass density (308.15 K, x2 = 0.3058): 1198 kg/m3
mass density (308.15 K, x2 = 0.5002): 1294.2 kg/m3
mass density (308.15 K, x2 = 0.6065): 1332.3 kg/m3
mass density (308.15 K, x2 = 0.7081): 1362.2 kg/m3
mass density (308.15 K, x2 = 0.7932): 1383.5 kg/m3
mass density (308.15 K, x2 = 0.9087): 1408 kg/m3
mass density (313.15 K, x2 = 0): 876.2 kg/m3
mass density (313.15 K, x2 = 0.1045): 1022.3 kg/m3
mass density (313.15 K, x2 = 0.2067): 1121.7 kg/m3
mass density (313.15 K, x2 = 0.3058): 1192.2 kg/m3
mass density (313.15 K, x2 = 0.4012): 1245 kg/m3
mass density (313.15 K, x2 = 0.5002): 1288.9 kg/m3
mass density (313.15 K, x2 = 0.6065): 1327.1 kg/m3
mass density (313.15 K, x2 = 0.9087): 1403.3 kg/m3
mass density (318.15 K, x2 = 0.1045): 1016.2 kg/m3
mass density (318.15 K, x2 = 0.3058): 1186.4 kg/m3
mass density (318.15 K, x2 = 0.4012): 1239.3 kg/m3
mass density (318.15 K, x2 = 0.6065): 1321.9 kg/m3
mass density (318.15 K, x2 = 0.7932): 1373.7 kg/m3
mass density (323.15 K, x2 = 0): 863.8 kg/m3
mass density (323.15 K, x2 = 0.1045): 1010.2 kg/m3
mass density (323.15 K, x2 = 0.2067): 1109.9 kg/m3
mass density (323.15 K, x2 = 0.4012): 1233.8 kg/m3
mass density (323.15 K, x2 = 0.5002): 1278 kg/m3
mass density (323.15 K, x2 = 0.6065): 1316.7 kg/m3
mass density (323.15 K, x2 = 0.7081): 1347.1 kg/m3
mass density (323.15 K, x2 = 0.9087): 1393.8 kg/m3

CCCC[n+]1ccn(C)c1.O=S(=O)([N-]S(=O)(=O)C(F)(F)F)C(F)(F)F + CCOC(C)=O
mass density (298.15 K, x1 = 1): 1433.7 kg/m3
mass density (303.15 K, x1 = 1): 1428.9 kg/m3
mass density (308.15 K, x1 = 1): 1424.1 kg/m3
mass density (313.15 K, x1 = 1): 1419.4 kg/m3
mass density (318.15 K, x1 = 1): 1414.6 kg/m3
mass density (323.15 K, x1 = 1): 1409.9 kg/m3
